From PMC8497055
Results are given in words; binding and its absence hold for the method and conditions named. Binding seen in cells or lysates may run through a third protein. Some results given as binding are weak or reduced against the parent protein; the word gives no strength. For part of these data: Sequences can lack the tags named with a protein.

Amino acid sequences for entries named in this document (tags omitted). A change or cut given only in a name is not applied to a line headed by its entry. Residues count along the entry.
UniProt P55852, residues 2-100: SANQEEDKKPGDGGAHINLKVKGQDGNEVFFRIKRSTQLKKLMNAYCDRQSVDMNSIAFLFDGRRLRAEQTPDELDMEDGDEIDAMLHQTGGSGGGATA
UniProt Q9FLP6, residues 2-103: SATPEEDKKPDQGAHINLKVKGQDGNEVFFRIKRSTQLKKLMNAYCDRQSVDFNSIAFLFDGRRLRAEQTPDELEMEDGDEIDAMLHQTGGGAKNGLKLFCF
UniProt Q9SLF3: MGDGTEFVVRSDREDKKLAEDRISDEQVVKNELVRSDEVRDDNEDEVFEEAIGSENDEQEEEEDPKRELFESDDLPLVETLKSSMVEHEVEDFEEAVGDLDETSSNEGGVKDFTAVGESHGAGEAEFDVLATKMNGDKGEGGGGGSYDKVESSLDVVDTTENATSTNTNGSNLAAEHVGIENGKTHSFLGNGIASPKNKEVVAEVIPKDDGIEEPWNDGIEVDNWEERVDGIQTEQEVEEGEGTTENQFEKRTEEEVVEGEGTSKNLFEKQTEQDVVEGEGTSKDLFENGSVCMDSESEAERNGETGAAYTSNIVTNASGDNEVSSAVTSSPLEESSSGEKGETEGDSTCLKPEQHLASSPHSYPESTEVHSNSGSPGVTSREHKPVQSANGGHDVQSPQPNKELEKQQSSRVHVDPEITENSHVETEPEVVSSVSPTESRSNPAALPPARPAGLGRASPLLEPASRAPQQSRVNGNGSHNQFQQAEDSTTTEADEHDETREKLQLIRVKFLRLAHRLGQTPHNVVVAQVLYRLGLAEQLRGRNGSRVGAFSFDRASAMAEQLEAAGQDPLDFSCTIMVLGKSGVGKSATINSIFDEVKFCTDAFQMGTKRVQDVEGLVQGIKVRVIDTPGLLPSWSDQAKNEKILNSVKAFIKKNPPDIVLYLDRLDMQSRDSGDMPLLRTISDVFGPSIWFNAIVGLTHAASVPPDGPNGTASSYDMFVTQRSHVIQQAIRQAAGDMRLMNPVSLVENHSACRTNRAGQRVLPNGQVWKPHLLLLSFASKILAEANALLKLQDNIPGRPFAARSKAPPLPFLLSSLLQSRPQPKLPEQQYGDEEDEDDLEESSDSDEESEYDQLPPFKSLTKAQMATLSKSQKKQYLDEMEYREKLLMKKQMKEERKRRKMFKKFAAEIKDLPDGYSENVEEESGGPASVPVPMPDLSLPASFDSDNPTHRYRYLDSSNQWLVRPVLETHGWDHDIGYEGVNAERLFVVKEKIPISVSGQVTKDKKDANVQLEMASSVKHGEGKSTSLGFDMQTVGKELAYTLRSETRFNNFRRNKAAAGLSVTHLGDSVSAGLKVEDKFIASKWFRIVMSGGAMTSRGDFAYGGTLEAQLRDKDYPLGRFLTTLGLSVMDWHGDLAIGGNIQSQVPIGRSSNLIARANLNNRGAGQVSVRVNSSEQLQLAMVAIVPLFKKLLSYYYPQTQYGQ
UniProt O81283: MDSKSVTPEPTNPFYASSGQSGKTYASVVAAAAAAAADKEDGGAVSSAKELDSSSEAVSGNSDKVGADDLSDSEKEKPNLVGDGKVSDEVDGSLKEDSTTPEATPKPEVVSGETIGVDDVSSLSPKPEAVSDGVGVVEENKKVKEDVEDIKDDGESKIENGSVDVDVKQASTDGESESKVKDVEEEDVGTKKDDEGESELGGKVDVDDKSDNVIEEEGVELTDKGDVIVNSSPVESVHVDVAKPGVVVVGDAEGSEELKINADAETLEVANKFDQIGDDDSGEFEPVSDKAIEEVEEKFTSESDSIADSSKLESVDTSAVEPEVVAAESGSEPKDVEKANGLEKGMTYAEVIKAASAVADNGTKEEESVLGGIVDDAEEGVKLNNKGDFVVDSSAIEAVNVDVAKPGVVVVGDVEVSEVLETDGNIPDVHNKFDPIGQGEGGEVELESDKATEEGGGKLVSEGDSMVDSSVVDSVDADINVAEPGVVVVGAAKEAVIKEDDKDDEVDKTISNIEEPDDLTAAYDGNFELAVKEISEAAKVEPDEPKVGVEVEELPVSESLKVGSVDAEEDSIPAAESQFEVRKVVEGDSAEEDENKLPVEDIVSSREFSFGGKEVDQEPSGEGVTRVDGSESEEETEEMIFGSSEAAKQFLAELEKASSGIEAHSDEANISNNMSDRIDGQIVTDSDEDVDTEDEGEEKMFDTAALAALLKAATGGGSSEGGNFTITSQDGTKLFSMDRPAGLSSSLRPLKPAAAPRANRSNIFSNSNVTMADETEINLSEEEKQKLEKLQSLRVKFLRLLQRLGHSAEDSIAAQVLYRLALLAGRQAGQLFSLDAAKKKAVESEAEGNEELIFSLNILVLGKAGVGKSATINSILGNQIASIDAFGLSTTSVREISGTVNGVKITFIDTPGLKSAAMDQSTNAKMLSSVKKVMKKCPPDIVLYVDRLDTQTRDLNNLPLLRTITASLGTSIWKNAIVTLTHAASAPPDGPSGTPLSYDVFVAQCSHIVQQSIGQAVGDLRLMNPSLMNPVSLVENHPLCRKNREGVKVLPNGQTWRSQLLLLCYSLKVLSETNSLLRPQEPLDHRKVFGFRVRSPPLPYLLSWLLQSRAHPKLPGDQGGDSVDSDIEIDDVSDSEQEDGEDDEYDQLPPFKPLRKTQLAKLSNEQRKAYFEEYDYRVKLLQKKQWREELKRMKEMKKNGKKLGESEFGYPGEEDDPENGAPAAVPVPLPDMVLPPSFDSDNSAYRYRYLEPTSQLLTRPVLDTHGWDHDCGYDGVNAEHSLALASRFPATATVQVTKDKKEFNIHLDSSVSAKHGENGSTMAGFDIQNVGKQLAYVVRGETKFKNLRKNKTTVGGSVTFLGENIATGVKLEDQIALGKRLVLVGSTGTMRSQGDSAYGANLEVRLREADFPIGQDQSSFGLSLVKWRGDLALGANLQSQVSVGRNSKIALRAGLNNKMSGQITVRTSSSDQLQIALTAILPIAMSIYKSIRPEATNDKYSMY
UniProt Q9SVC4, residues 1-35: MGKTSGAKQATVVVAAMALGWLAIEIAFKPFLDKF

T1: SCE1-cYFP (Arabidopsis thaliana) (UniProt Q42551)
T1 sequence: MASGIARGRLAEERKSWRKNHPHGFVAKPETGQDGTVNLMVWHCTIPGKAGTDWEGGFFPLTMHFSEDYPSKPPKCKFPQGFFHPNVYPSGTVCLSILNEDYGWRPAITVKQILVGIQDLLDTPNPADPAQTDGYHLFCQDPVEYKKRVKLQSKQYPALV

T2: SCE1-YFP (Arabidopsis thaliana) (UniProt Q42551)
T2 sequence: T1 sequence

T3: YFP-SUMO3 (Arabidopsis thaliana) (UniProt Q9FLP5)
T3 sequence: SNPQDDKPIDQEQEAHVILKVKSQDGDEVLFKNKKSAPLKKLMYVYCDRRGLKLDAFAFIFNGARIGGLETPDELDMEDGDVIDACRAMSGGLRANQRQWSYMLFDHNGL

B1: Toc33-HA (receptor, UniProt O23680 1-297)
chain: MGSLVREWVGFQQFPAATQEKLIEFFGKLKQKDMNSMTVLVLGKGGVGKSSTVNSLIGEQVVRVSPFQAEGLRPVMVSRTMGGFTINIIDTPGLVEAGYVNHQALELIKGFLVNRTIDVLLYVDRLDVYRVDELDKQVVIAITQTFGKEIWCKTLLVLTHAQFSPPDELSYETFSSKRSDSLLKTIRAGSKMRKQEFEDSAIAVVYAENSGRCSKNDKDEKALPNGEAWIPNLVKAITDVATNQRKAIHVDKKMVDGSYSDDKGKKLIPLIIGAQYLIVKMIQGAIRNDIKTSGKPL
B2: nYFP-Toc34 (receptor, UniProt Q38906 1-313)
chain: MAALQTLREWIGIQQFPPATQSKLLEILGKYKEEDVSSLTVLVMGKGGVGKSSTVNSVIGEKAAAVSTFQSEGLRPTLVSRTRSGFTLNIIDTPGLIEGGYVNDQAINIIKRFLLNMTIDVLLYVDRLDVYRVDDLDRQVVGAITDAFGKEIWKKSALVLTHAQFSPPDGLNYNHFVSKRSNALLKVIQTGAQLKKQDLQGFSIPVILVENSGRCHKNESDEKILPCGTSWIPNLFNKITEISFNGNKAIHVDKKLVEGPNPNERGKKLIPLMFAFQYLLVMKPLVRAIKSDVSRESKPAWELRDSGLASRRS
B3: nYFP-Toc33 (receptor, UniProt O23680 1-297)
chain: B1 chain
B4: native Tic110 (protein, UniProt Q8LPR9 52-1016)
chain: SAASSDQLSVSTQAKNPGIHGNKKELTGLQPIVEKMTPPVRLATSAVVLAASLATGYGLGLRLAGSRNIAFGGAAVAGAAGGAVVYALNSAVPEVAAISLHNYVAEFEDPASVTKDDVEKIADRYGVNKGDEAFQAEICDIYCRYVTSVLPTEGQSLKGDEVAKIVKFKNALGIDEPDAAAMHMEIGRRIFRQRLETGEREGDAEQRRAFMRLVYVSALVFGDASSFLLPWKRVLKVTDAQVEIAIRENAKQLYAERLKLVGRDINVENLVDLRKSQLSFKLSDELAEDLFREHTRKVVVENISSALSILKSRTRAAKSLASVVEELEKVLEFNNLLVSLKSHSEADQFARGVGPISLIGDESDFERRMDDLKLLYRAYVTDALSGGRLEENKLVAMSQLRNILGLGKREAEAISVDVTSKSYRKRLANAVSSGDLEAQDSKAKYLQKLCEELHFDAQKAGAIHEEIYRQKLQQCVTDGELSDDNVAALLRLRVMLCIPQQTVDTAHAEICGTIFEKVVRDAISSGVDGYDAETRKSVRKAAHGLRLSRETAMSIASKAVRRVFTNYIRRARAAENRTDSAKELKKMIAFNTLVVTEMVADIKGESSDKAPEEDPVQEKEEDDEDEEWGSLESLRKTRPDKELAEKMGKPGQTEITLKDDLPDRDRIDLYKTYLLYCVTGEVTRIPFGAQITTKRDDSEYLLLNQLGGILGLSSKEIVNIHVGLAEQAFRQQAEVILADGQLTKARVEQLDELQKQVGLPQPQAEKVIKNITTTKMANAIETAVNQGRLNIKQIRELKEANVSLDSMIAVSLREKLFKKTVSDIFSSGTGEFDETEVYQTIPSDLSIDVEKAKRVVHDLAQSRLSNSLVQAVALLRQRNSKGVVLSLNDLLACDKAVPAEPMSWEVSEELSDLYAIYSKSDPKPAPEKVLRLQYLLGIDDSTATALREMEDGALSSAAEEGNFVF

Assays:
[1] = target: T1, SCE1-cYFP (Arabidopsis thaliana); experiment: split reporter; BiFC: Arabidopsis protoplasts co-transfected with two constructs bearing nYFP and cYFP; overnight incubation; YFP imaged by confocal microscopy
[2] = target: T2, SCE1-YFP (Arabidopsis thaliana); experiment: co-IP; YFP fusion bait transiently expressed in Arabidopsis protoplasts; solubilised in IP buffer with 1% Triton X-100; GFP-Trap (YFP-Trap) beads; four washes; native proteins detected by immunoblotting
[3] = target: YFP-SUMO1 (Arabidopsis thaliana) (UniProt P55852); experiment: as above
[4] = target: YFP-SUMO2 (Arabidopsis thaliana) (UniProt Q9FLP6); experiment: as above
[5] = target: T3, YFP-SUMO3 (Arabidopsis thaliana); experiment: as above
[6] = target: T3, YFP-SUMO3 (Arabidopsis thaliana); experiment: co-IP; YFP fusion bait co-expressed with Toc33-HA in Arabidopsis protoplasts; solubilised in IP buffer with 1% Triton X-100; GFP-Trap (YFP-Trap) beads; four washes; immunoblotting

Molecule	binding [1]	binding [2]	other results
nYFP-Toc132 (from UniProt Q9SLF3 1-1206) (receptor)	binds	–	–
nYFP-Toc159 (from UniProt O81283 1-1503) (receptor)	binds	–	–
native Toc132 (from UniProt Q9SLF3 1-1206) (receptor)	–	binds	–
native Toc159 (from UniProt O81283 1-1503) (receptor)	–	binds	binding [3]: binds weakly; binding [4]: binds weakly; binding [5]: binds
ΔOEP7-nYFP (from UniProt Q9SVC4 1-35) (domain or fragment)	no binding	–	–
B1	–	–	binding [6]: binds
B2	binds	–	–
B3	binds	–	–
B4	–	no binding	–
